Hit rate of the full screen: of about 360,000 compounds, about 7,500 (2.1%) were called active. The inconclusive results got no clear call from the source; some entries with a clear call stand among them for comparison. The call rests on the fitted dose curve; in most records, active means well fitted cell-killing curve with a large enough effect; inconclusive means small, poorly fitted or top-dose-only effect, or effect the other way, or another doubt; inactive means no such curve, though single readings can be large or run the other way. Potencies of inconclusive entries are left out as doubtful fits.
Assay: qHTS for induction of synthetic lethality in tumor cells producing 2HG: qHTS for the HT-1080-IDH1KD cell line;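 on activity, negative = toxicity: 0% = DMSO wells and -100% = cell-free medium wells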
Conditions: HT-1080 IDH1 knockdown viability, ATP luminescence, 48 h; activity, negative = toxicity: at 46.1 µM (top of the series) unless noted
Summary of the method: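 Knockdown cells (IDH1KD HT-1080) received compounds 2 h after plating at 750 cells/well and were kept 48 h at 37 °C in 5% FBS RPMI. A CellTiter-Glo luminescence read gave % activity for curve fitting.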
Potency means the concentration at half of the fitted maximal effect; tags describe the fitted curve by direction and shape.

SMILES	Potency	activity, negative = toxicity
CCOC(=O)C1(Cc2ccccc2)CCCN(C(=O)COc2ccccc2OC)C1 (centres undefined)	inactive	–
O=C(NC(Cc1ccccc1)C(=O)O)c1ccc(S(=O)(=O)N2CCCCC2)cc1 (centres undefined)	inactive	–
CCOc1ccccc1NC(=O)c1cc(-c2ccncc2)nc2c(Cl)cccc12	inconclusive [cytotoxic, partial curve]	–
CCOC(=O)c1c(C)oc2c1c(C(c1cccnc1)N1CCOCC1)c(O)c1ccccc12 (centres undefined)	inconclusive [cytotoxic, single point]	–
O=C(/C=C\c1ccco1)NC(=S)Nc1ccccc1O	inconclusive [cytotoxic, partial curve]	–
O=C(Cc1cccs1)Nc1ccc(-c2nnc(-c3ccccc3)o2)cc1	inactive	–
CN(C)/C=C/C(=O)c1cnc(-c2cccc(Cl)c2)s1	inactive	–
Oc1c(Cl)cc(Cl)cc1CNc1ccccn1	inconclusive [cytotoxic, single point]	–
CCOc1ccccc1NC(=O)Cn1nnc(C(=O)NCc2cccs2)c1N	active: 0.411 µM	–
O=[N+]([O-])c1ccc(N(CC2CO2)S(=O)(=O)c2ccccc2)cc1 (centres undefined)	inconclusive [cytotoxic, partial curve]	–
Cc1cc(=O)[nH]c(S/C=C/c2ccccc2)n1	inconclusive [cytotoxic, single point]	–
O=C(Nc1ccc2c(c1)CCCN2C(=O)c1cccs1)c1cccc(F)c1	inconclusive [cytotoxic, partial curve]	–
Cc1ccc(OCC(=O)N/N=C/c2cccc3cccnc23)cc1	inconclusive [cytotoxic, partial curve]	–
O=C(CSc1nc2ccccc2[nH]1)Nc1nc(-c2ccc(Br)cc2)cs1	inconclusive [cytotoxic, single point]	–
O=C(CSc1nc2ccccc2c(=O)[nH]1)Nc1ccc([N+](=O)[O-])cc1	active: 9.2 µM	–
CC1Sc2n(c3ccccc3[n+]2C)N=C1c1ccccc1 (centres undefined)	active: 7.31 µM	–
CC1CN(c2ccc([N+](=O)[O-])c(NCCOc3ccccc3)c2)CC(C)N1 (centres undefined)	active: 20.6 µM	–
Cc1cccc(NS(=O)(=O)c2ccc(-c3cnc(C4CC4)o3)cc2)c1C	inconclusive [cytotoxic, full curve, poor fit]	–
OC(COCc1ccc2c(c1)OCO2)CN1CCC(Cc2ccccc2)CC1 (centres undefined)	–	inconclusive: -27.1% [cytotoxic]
CC1(C(=O)NCc2ccco2)Cc2c(-c3ccccc3)ccnc2O1 (centres undefined)	inconclusive [cytotoxic, full curve]	–
CC(C)OC(=S)N/C(=N\S(=O)(=O)c1ccccc1)c1ccccc1	active: 8.91 µM	–
CSc1ccc(CN(C)Cc2nc3ccccc3c(=O)[nH]2)cc1	inactive	–
Cc1cccc(C)c1NC(=S)NC(=O)c1ccc(Br)o1	inactive	–
Cc1cc(C)c2ccc3c(C)c(C)nc3c2[nH]1	inconclusive [cytotoxic, partial curve, poor fit]	–
O=C(/C=C/c1ccc([N+](=O)[O-])cc1)c1ccccc(=O)c1O	active: 5.8 µM	–

SMILES	Potency	activity, negative = toxicity
O=C(CCl)N1N=C(c2ccco2)CC1c1cccs1 (centres undefined)	active: 23.1 µM	–
C[C@H]1CN([C@@H](C)CO)C(=O)CCCn2cc(nn2)CO[C@@H]1CN(C)C(=O)Nc1ccc(-c2cccs2)cc1	inactive	–
COc1ccc(OC)c(CCNC(=O)Cn2cccc2C(=O)c2ccccc2C)c1	inactive	–
Cc1cc(OCC(O)CN2CCN(c3ccccn3)CC2)cc(C)c1Cl (centres undefined)	inconclusive [cytotoxic, single point]	–
CCCNC(=O)NC1C(NC(=O)NCCC)N(C)C(=O)N1C (centres undefined)	inactive	–
Cc1cc(NC(=O)c2cncc(Br)c2)ccc1NC(=O)c1cc2ccccc2o1	inactive	–
CCN1CCN(c2c(/C=C3\SC(=S)N(Cc4ccco4)C3=O)c(C)c(C#N)c(=O)n2C)CC1	inconclusive [cytotoxic, partial curve]	–
CC(C)c1ccc(CC(=O)N2CCC2(C)C(=O)Nc2cnc3ccccc3c2)cc1 (centres undefined)	inconclusive [cytotoxic, partial curve]	–
O=c1[nH]c(C2CCN(S(=O)(=O)c3ccccc3)CC2)nc2c1nnn2Cc1c(F)cccc1Cl	inconclusive [cytotoxic, single point]	–
CCCCN(CCCC)CC(O)COc1ccccc1Br (centres undefined)	inconclusive [cytotoxic, single point]	–
O=C(CCc1ccccc1)c1ccc2c(c1)OCCCO2	inactive	–
CC(O)CNCCNCc1c(OCc2ccccc2)ccc2ccccc12 (centres undefined)	active: 11.2 µM	–
O=S(=O)(Nc1cc(Cl)ccc1-n1cncn1)c1ccc(F)cc1	inactive	–
CC12CCC(=O)C=C1CCC1C3CC(O)C(O)(C(=O)CO)C3(C)CC(O)C12F (centres undefined)	inconclusive [rising, partial curve]	–
COc1ccccc1C(=O)NC(CCSC)C(=O)NNC(=O)c1ccccc1O (centres undefined)	inconclusive [cytotoxic, partial curve]	–
Cc1ccc(OCC(=O)N/N=C2\CCOc3c(C)cccc32)cc1	inconclusive [cytotoxic, single point]	–
COc1ccc(CNC(=O)C2CCN(S(=O)(=O)c3cccnc3)CC2)cc1	inactive	–
CSc1ccc(C2c3[nH]c4ccccc4c3CCN2C(=O)c2ccnn2C)cc1 (centres undefined)	inconclusive [cytotoxic, partial curve]	–
O=C(COc1ccc(C(=O)O)cc1)Nc1cccc(C(F)(F)F)c1	inactive	–
CC(=O)Nc1ccc(-c2ccnc3c2CC(C(=O)Nc2cccnc2)O3)cc1 (centres undefined)	active: 13 µM	–
COc1nc(N2CCOCC2)nc(-n2cccc2)n1	inactive	–
Cc1cccc(C2c3[nH]c4ccccc4c3CCN2C(=O)c2nn(C)c(=O)c3ccccc23)n1 (centres undefined)	inconclusive [cytotoxic, partial curve]	–
C/C(=N/NC(=O)c1ccncc1)c1ccccc1	inactive	–
Cc1oc2cc(OC(C)C(=O)O)ccc2c(=O)c1Oc1ccccc1 (centres undefined)	inactive	–

Reference: PubChem BioAssay AID686971 (National Center for Advancing Translational Sciences (NCATS), 2013)
